The source of these data is ChEMBL document CHEMBL4414601 (J Med Chem, 2019).

Data set [1] is described as follows: Lipophilicity, LogD of compound by reverse phase HPLC analysis.
Data set [2] is described as follows: Clearance in mouse liver microsomes at 0.5 uM measured up to 45 mins in presence of NADPH by HPLC-MS/MS analysis. The data set is classed as ADME, Microsome.
Data set [3] in a line: Clearance in rat liver microsomes at 0.5 uM measured up to 45 mins in presence of NADPH by HPLC-MS/MS analysis. The data set is classed as ADME, Microsome. A general note: Liver microsomes are vesicles of endoplasmic reticulum, rich in cytochrome P450 enzymes.
Data set [4] in a line: Aqueous solubility of compound. The settings on record: buffer.
The nature of data set [5]: Permeability of compound by PAMPA.
Data set [6] can be described thus: Clearance in human liver microsomes at 0.5 uM measured up to 45 mins in presence of NADPH by HPLC-MS/MS analysis. The data set is classed as ADME, Microsome.
For data set [7], the system named is L929. The experiment in a line: Cytotoxicity against mouse L929 cells assessed as reduction in viability by dual luciferase reporter gene assay. The data set is classed as ADME, cell-based. (In general: A reporter such as luciferase makes a cellular process visible.)

Values after ≈ are worked out from the molar mass of the structure shown.

As usually defined, the chromatographic logD is lipophilicity estimated from chromatographic retention. A higher chromatographic logD goes with higher lipophilicity. What is called solubility is how much of the substance goes into solution per volume. Usually Papp stands for the rate of passage across a membrane or cell layer, normalised by area and donor concentration. High values mean fast passage, low ones slow passage. Usually EC50 stands for the concentration needed to bring the measured effect to its halfway point.

In data set [1], `CN1CCC(c2nc(-c3ccc(F)cc3)c(-c3ccnc(Nc4ccc(N5CCNCC5)cc4)n3)s2)CC1` came in with a chromatographic logD of 2.38. Besides, the CLH in data set [2] turned out to be 0.48 mL/min/g; in data set [3] it was 0.46 mL/min/g; in data set [6], 0.57 mL/min/g. In addition, the solubility in data set [4] stood at 284 µM (≈ 150 µg/mL). Also, in data set [5], the Papp was 12 ×10⁻⁶ cm/s.

With `Cc1cc(Nc2nccc(-c3sc(C4CCNCC4)nc3-c3ccc(F)cc3)n2)cc(C)n1`, the chromatographic logD in data set [1] is 2.36. For the same compound, the CLH in data set [2] stood at 3.44 mL/min/g; in data set [3] it was 1.19 mL/min/g; in data set [6] it was 1.3 mL/min/g. In addition, in data set [7], the EC50 was 5 µM. In addition, the solubility in data set [4] was determined as 142 µM (≈ 65.4 µg/mL). In data set [5], this compound had a Papp of 19 ×10⁻⁶ cm/s.

In data set [1], `CC(=O)Nc1nc(-c2ccc(F)cc2)c(-c2ccnc(Nc3ccc(N4CCNCC4)cc3)n2)s1` had a chromatographic logD of 2.89. The CLH was 0.97 mL/min/g in data set [2], 0.74 mL/min/g in data set [3] and 0.4 mL/min/g in data set [6]. For the same compound, the EC50 in data set [7] stood at 1.6 µM. In addition, in data set [4], the solubility turned out to be 8 µM (≈ 3.92 µg/mL).

In turn, `Fc1ccc(-c2nc(C3CCNCC3)sc2-c2ccnc(Nc3ccncn3)n2)cc1` gave a chromatographic logD in data set [1] of 2.22. In addition, the values for the CLH in data set [2], in data set [3] and in data set [6] were 2.02 mL/min/g, 0.68 mL/min/g and 0.82 mL/min/g, respectively. Moreover, the EC50 in data set [7] stood at 5.4 µM. The compound also returned a solubility in data set [4] of 69 µM (≈ 29.9 µg/mL). Also, in data set [5], the Papp was determined as 18 ×10⁻⁶ cm/s.

In data set [1], `Fc1ccc(-c2nc(C3CCNCC3)sc2-c2ccnc(NCc3ccncc3)n2)cc1` came in with a chromatographic logD of 2.26. Also, the CLH is 4.54 mL/min/g in data set [2], 1.42 mL/min/g in data set [3] and 5.02 mL/min/g in data set [6]. For the same compound, in data set [7], the EC50 was found to be 15.5 µM. The same compound yielded a solubility in data set [4] of 315 µM (≈ 141 µg/mL). The compound further came in with a Papp in data set [5] of 16 ×10⁻⁶ cm/s.
